The assay concerns mPer2Luc MEF. Description: PER2::LUC luminescence relative to vehicle control (fold of vehicle); higher = higher PER2::LUC reporter signal. The following applies: 10 µM. A digest of the protocol: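 The reported values are PER2::LUC luminescence as fold of vehicle control in mouse embryonic fibroblasts carrying the mPer2Luc reporter. Cells were seeded at ~3000 per well in 384-well plates in DMEM with 10% FBS at 37 °C and 5% CO2, and compounds were added at 10 μM 48 h later. ONE-Glo luminescence was read 24 h and 30 h after treatment.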

“And” between values parts separate entries of the source, which are not always exact repeats. Equal entries are not always repeated. Whole data set: some 5,300 compounds, median “PER2::LUC luminescence relative to vehicle control” near 0.96, cut for the highest 2% near 1.3. Some of the results follow.

The text below walks through data of the supplement of paper PMC9334596.

As to `Clc1cccc(-c2nnnn2Cc2cccnc2)c1Cl`, the “PER2::LUC luminescence” value runs as follows: (time after treatment 24 h) 1.04; (time after treatment 30 h) 1.05.

For the compound `CNC(=O)c1cc2c(cn1)[nH]c1ccccc12`, the “PER2::LUC luminescence” value is, setting by setting: (time after treatment 24 h) 0.997 and 0.875; (time after treatment 30 h) 0.958 and 0.981.

In the case of `Cc1cc(=O)oc2cc(O)ccc12`, the “PER2::LUC luminescence” value by setting is: (time after treatment 24 h) 1.01 and 1.08 and 0.784; (time after treatment 30 h) 0.94 and 0.807 and 0.997.

On to `CCCCCCCCCCCCCCCCCCOP(=O)([O-])OC1CC[N+](C)(C)CC1`, for which the “PER2::LUC luminescence” value by setting is: (time after treatment 24 h) 0.845; (time after treatment 30 h) 1.06.

As to `O=C(Nc1ccc(OC(F)(F)F)cc1)c1sccc1NCc1ccnc2ccccc12`, the “PER2::LUC luminescence” value is, setting by setting: (time after treatment 24 h) 1.76; (time after treatment 30 h) 1.99.

`COc1cc(/C=C/C(=O)N2CCN(CC(=O)N3CCCC3)CC2)cc(OC)c1OC`: the “PER2::LUC luminescence” value (time after treatment 24 h) amounted to 0.866 and the “PER2::LUC luminescence” value (time after treatment 30 h) turned out to be 0.974.

Take `CC(COc1ccccc1)N(CCCl)Cc1ccccc1` (stereo not drawn): the “PER2::LUC luminescence” value stood at 1.18 (time after treatment 24 h) and 1.1 (time after treatment 30 h).

As to `Nc1ncn([C@@H]2O[C@H](CO)[C@@H](O)[C@H]2O)c(=O)n1`, the “PER2::LUC luminescence” value runs as follows: (time after treatment 24 h) 0.654 and 0.464 and 1.01; (time after treatment 30 h) 1.26 and 0.687 and 1.13.

Take `COc1ccc(CN(CCN(C)C)c2ccccn2)cc1`: the “PER2::LUC luminescence” value (time after treatment 24 h) is 0.875 and 0.866; the “PER2::LUC luminescence” value (time after treatment 30 h) was 0.972 and 0.699.

Turning to `CCCNC(C)C(=O)Nc1ccccc1C` (stereo not drawn), the “PER2::LUC luminescence” value (time after treatment 24 h) was 1.17 and 1.01 and 0.968; the “PER2::LUC luminescence” value (time after treatment 30 h) is 0.959 and 0.999 and 0.918.

Turning to `CNc1ncnc2c1ncn2[C@H]1C[C@H](OP(=O)(O)O)[C@@H](COP(=O)(O)O)O1`, the “PER2::LUC luminescence” value reads like this: (time after treatment 24 h) 0.938; (time after treatment 30 h) 0.718.

As to `CCSC(=N)N`, the “PER2::LUC luminescence” value (time after treatment 24 h) was found to be 1.02 and the “PER2::LUC luminescence” value (time after treatment 30 h) stood at 1.19.

Consider `Cc1c(-c2ccnn2C)cc(C(=O)NCc2ccc(S(C)(=O)=O)cn2)c(=O)n1-c1cccc(C(F)(F)F)c1`, for which the “PER2::LUC luminescence” value runs as follows: (time after treatment 24 h) 0.918; (time after treatment 30 h) 0.966.

On to `CC(=O)c1ccc(S(=O)(=O)NC(=O)NC2CCCCC2)cc1`, for which the “PER2::LUC luminescence” value worked out at 1.02 (time after treatment 24 h) and 0.908 (time after treatment 30 h).

For `CC(C)(C)c1[nH]cnc1/C=c1\[nH]c(=O)/c(=C/c2ccccc2)[nH]c1=O`, the “PER2::LUC luminescence” value was found to be 0.369 (time after treatment 24 h) and 0.395 (time after treatment 30 h).

For the compound `Cc1scc2c1N(C(=O)CN1CCN(C)CC1)c1ccccc1NC2=O`, the “PER2::LUC luminescence” value (time after treatment 24 h) is 1.05 and 0.898; the “PER2::LUC luminescence” value (time after treatment 30 h) is 1.04 and 1.1.

`COc1cc(C(=O)O)cc(OC)c1O`: the “PER2::LUC luminescence” value was found to be 1.06 (time after treatment 24 h) and 1.08 (time after treatment 30 h).

Take `Cc1cc2c(cc1Cl)N(C(=O)Nc1ccc(Oc3cccnc3C)nc1)CC2`: the “PER2::LUC luminescence” value reads like this: (time after treatment 24 h) 0.924; (time after treatment 30 h) 1.03.

For `O=C(N[C@@H](Cc1ccccc1)C(=O)CCl)OCc1ccccc1`, the “PER2::LUC luminescence” value was found to be 1.06 (time after treatment 24 h) and 1.11 (time after treatment 30 h).

With `CNC(=O)CN(CCN(CCN(CC(=O)O)CC(=O)NC)CC(=O)O)CC(=O)O.O.[Gd]`, the “PER2::LUC luminescence” value (time after treatment 24 h) came out at 1.08 and the “PER2::LUC luminescence” value (time after treatment 30 h) came to 1.05.

`CN(C)CCC(c1ccc(Cl)cc1)c1ccccn1` (single isomer, unassigned; (+)): the “PER2::LUC luminescence” value was found to be 0.963 (time after treatment 24 h) and 0.902 (time after treatment 30 h).

Take `O=C1C[C@@H](c2ccc(O)c(O)c2)Oc2cc(O[C@@H]3O[C@H](CO)[C@@H](O)[C@H](O)[C@H]3O)cc(O)c21`: the “PER2::LUC luminescence” value (time after treatment 24 h) came to 1.05 and the “PER2::LUC luminescence” value (time after treatment 30 h) stood at 1.01.

For the compound `Cn1c(=O)cc(N2CCC[C@@H](N)C2)n(Cc2cc(F)ccc2C#N)c1=O`, the “PER2::LUC luminescence” value was 1.07 and 0.956 (time after treatment 24 h); 1.03 and 1 and 0.915 (time after treatment 30 h).

`Cn1c(=O)c2nc[nH]c2n(C)c1=O`: the “PER2::LUC luminescence” value by setting is: (time after treatment 24 h) 1.07; (time after treatment 30 h) 0.99.

For the compound `CC(COc1ccc(/C=C/c2ccccc2)cc1)[N+](C)(C)C` (stereo not drawn), the “PER2::LUC luminescence” value (time after treatment 24 h) was determined as 0.936 and the “PER2::LUC luminescence” value (time after treatment 30 h) came to 1.02.

Take `CC[C@]1(O)C[C@@H]2CN(CCc3c([nH]c4ccccc34)[C@@](C(=O)OC)(c3cc4c(cc3OC)N(C)[C@H]3[C@@](O)(C(N)=O)[C@H](O)[C@]5(CC)C=CCN6CC[C@]43[C@@H]65)C2)C1`: the “PER2::LUC luminescence” value stood at 0.657 (time after treatment 24 h) and 0.34 (time after treatment 30 h).

On to `COc1cc2cc3c4cc(OC)c(OC)cc4cc[n+]3c(C)c2cc1OC`, for which the “PER2::LUC luminescence” value is, setting by setting: (time after treatment 24 h) 1.1; (time after treatment 30 h) 1.08.

With `c1ccc(C2CN3CCSC3=N2)cc1` (stereo not drawn), the “PER2::LUC luminescence” value (time after treatment 24 h) is 0.842 and 0.284; the “PER2::LUC luminescence” value (time after treatment 30 h) was 0.734 and 0.346.

Consider `C=C1c2cccc(O)c2C(=O)C2=C(O)[C@]3(O)C(=O)C(C(N)=O)=C(O)[C@@H](N(C)C)[C@@H]3[C@@H](O)[C@H]12`, for which the “PER2::LUC luminescence” value is, setting by setting: (time after treatment 24 h) 1.06 and 1.19; (time after treatment 30 h) 0.955 and 1.02.

Regarding `COc1ccc2nc(/C=C/c3cccc([N+](=O)[O-])c3)n(-c3ccc(C(=O)O)cc3)c(=O)c2c1`, the “PER2::LUC luminescence” value (time after treatment 24 h) is 1.05 and the “PER2::LUC luminescence” value (time after treatment 30 h) amounted to 1.01.

Turning to `NCCCC[C@H](N[C@@H](CCc1ccccc1)C(=O)O)C(=O)N1CCC[C@H]1C(=O)O`, the “PER2::LUC luminescence” value runs as follows: (time after treatment 24 h) 0.954 and 0.75; (time after treatment 30 h) 0.879 and 0.869.

Consider `NC1(C(=O)O)CCCC1`, for which the “PER2::LUC luminescence” value is 0.961 (time after treatment 24 h) and 0.889 (time after treatment 30 h).

As for `Cc1cc2nc(NCCCO)n(CC(=O)c3cc(C(C)(C)C)c(O)c(C(C)(C)C)c3)c2cc1C`, the “PER2::LUC luminescence” value is, setting by setting: (time after treatment 24 h) 1.06; (time after treatment 30 h) 0.919.

For `c1ccc2c(c1)CCC[C@H]2Nc1nc2ccccc2[nH]1`, the “PER2::LUC luminescence” value is, setting by setting: (time after treatment 24 h) 1.01; (time after treatment 30 h) 0.874.
